# Measurements as given in PMC9911399, “Two distinct binding modes provide the RNA-binding protein RbFox with extraordinary sequence specificity”.
# Where a chain is given by its changes, count along the chain named. The list shows a part of the results.
# T1: RBFOX1 RRM RbFoxmut (Fox-RRM*) (Homo sapiens, UniProt Q9NWB1 109-208, R118D;E147R;N151S;E152T)
# T1 sequence: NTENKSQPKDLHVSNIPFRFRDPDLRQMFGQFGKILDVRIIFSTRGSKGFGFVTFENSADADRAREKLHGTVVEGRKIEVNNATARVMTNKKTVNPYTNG
# B1: CCUACCG (DNA:RNA)
# RNA: GGGAGACCGGAAUUCAGAUUGUCCCCUACCGUUAAAUCCCGUCGUAGCCACCA
# DNA 1: CAATCTGAATTCCGGTCTCCC
# DNA 2: TGGTGGCTACGACGGGATT
# B2: AUUAUGC (DNA:RNA)
# RNA: B1 RNA with C25A, C26U, C29U, C30G, G31C
# DNA 1: CAATCTGAATTCCGGTCTCCC
# DNA 2: TGGTGGCTACGACGGGATT
# B3: GGCCCCU (DNA:RNA)
# RNA: B1 RNA with C25G, C26G, U27C, A28C, G31U
# DNA 1: CAATCTGAATTCCGGTCTCCC
# DNA 2: TGGTGGCTACGACGGGATT
# B4: UGCUAAA (DNA:RNA)
# RNA: GGGAGACCGGAAUUCAGAUUGUCCUGCUAAAUUAAAUCCCGUCGUAGCCACCA
# DNA 1: CAATCTGAATTCCGGTCTCCC
# DNA 2: TGGTGGCTACGACGGGATT
# B5: ACCUCAG (DNA:RNA)
# RNA: B1 RNA with C25A, U27C, A28U, C30A
# DNA 1: CAATCTGAATTCCGGTCTCCC
# DNA 2: TGGTGGCTACGACGGGATT
# B6: AUUGCAA (DNA:RNA)
# RNA: B1 RNA with C25A, C26U, A28G, C30A, G31A
# DNA 1: CAATCTGAATTCCGGTCTCCC
# DNA 2: TGGTGGCTACGACGGGATT
# B7: GUUCUGC (DNA:RNA)
# RNA: B1 RNA with C25G, C26U, A28C, C29U, C30G, G31C
# DNA 1: CAATCTGAATTCCGGTCTCCC
# DNA 2: TGGTGGCTACGACGGGATT
# B8: CGUCAAC (DNA:RNA)
# RNA: B4 RNA with U25C, C27U, U28C, A31C
# DNA 1: CAATCTGAATTCCGGTCTCCC
# DNA 2: TGGTGGCTACGACGGGATT
# B9: CCCUUAA (DNA:RNA)
# RNA: B4 RNA with U25C, G26C, A29U
# DNA 1: CAATCTGAATTCCGGTCTCCC
# DNA 2: TGGTGGCTACGACGGGATT
# Molecular target: T1, RBFOX1 RRM RbFoxmut (Fox-RRM*)
# Test: EMSA; HiTS-Eq, 1 nM pool, 10 min; buffer printed only for the single-RNA assays: 10 mM Tris pH 7.5, 150 mM NaCl, 3.4 mM EDTA, 0.001% NP-40, 30 C
# Details: tags: His6 N-terminal (pET28a); label: 5' 32P
# How it was run: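 Purified RbFox RRM (wild type or mutant) was equilibrated for 10 min in 50 µL with 1 nM of a 5′-radiolabelled pool of RNA with 7 randomized nucleotides, its flanks annealed to DNA oligonucleotides, across increasing protein concentrations. Free RNA was separated by 8% native PAGE, excised, reverse-transcribed, PCR-barcoded and sequenced on an Illumina HiSeq 2500. Relative association constants came from read-count changes of each variant against the control reaction, normalised to the cognate motif.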
row,Binder,binding signal
1,B1,0.0983 KA relative to UGCAUGU
2,B2,0.129 KA relative to UGCAUGU
3,B3,0.0476 KA relative to UGCAUGU
4,B4,0.0931 KA relative to UGCAUGU
5,B5,0.137 KA relative to UGCAUGU
6,B6,0.0795 KA relative to UGCAUGU
7,B7,0.0664 KA relative to UGCAUGU
8,B8,0.0588 KA relative to UGCAUGU
9,B9,0.097 KA relative to UGCAUGU
